Test results as given in the supplement of paper PMC12632987.
The full ranking holds about 4,500 sequences; the median of “median log2 fold change of GCK-ALFA target abundance (FLAG IP / Myc IP barcode read proportion)” is about 0.078, and the lowest 2% start at about -0.6. This is one part of the list.

B1: GBRAP_160_4749 (protein)
chain: KEEKEKLLKEVEEIFDEGIALLKESPASEAPTIIAGITGEVLMEVFSSEAASDELEDEVAKIADKAEAEAKANADAPVEVHIAILEKAKKEVLEIIKKEI
B2: GBRAP_52_6292 (protein)
chain: SEEEVEETARKIVELVKEGKLEEAIELAKKFVKENSLEEVIRLGKLLIKEIEKLTPEEAEKMLEVIEALAEELEKEFGAEEEADILEAEAAAAAYKVFQK
B3: GBRAP_160_4211 (protein)
chain: MELIEKVIEDIREATEEVKELIPKESREEVANFADVEFGSVLMEAVDAGIENDEILDTIAEAGDKIVETLLENKDASDEEIAEKLEEITEEAIERIKKIA
B4: GBRAP_52_5878 (protein)
chain: KLEEAKELLKKAIEAQKAGKEEEAEKILKEIVEKFDEETILKAVEELAKEIKGKSLEEAKAFFKTAEKLAEILLEKGGSEEVASYIEALAGAALYEVEQK
B5: GBRAP_128_3218 (protein)
chain: STEEAVERVRELLEKIKEADEETARELAEELAELILSSSLETAEAMAEEIEKLLPELTEEQLDILADAFVAAAKKDDTPVSLVLLGIAVDAGEQILEQEE
B6: GBRAP_43_5772 (protein)
chain: SKELVEGALDFALLAAESPEIDEETKVKAIIAAFDLAADEGYADKELILEVVKAAAKNLSAEELEKIRERAERIAKEHPELKEVFDEAIKILEKAIKAKK
B7: GBRAP_153_3948 (protein)
chain: SMESKEKLEKAKKLIEKIKKSEDPTEYIKELAKLLASMNLEERLEVAKEFNSLSEETVYKIFLTLATEEGFSVEELLELTTELNEEQQAAALKAIVEAQK
B8: GBRAP_95_7053 (protein)
chain: EDDRLAFEDAVEVTDAAVELGDEETARRNARRAVELFIKGGPLPFPKGISLEAKKLILEEAYKIADEEDREKLLEEILKSAETEEEKKELKEFYESLLKK
B9: GBRAP_137_3664 (protein)
chain: ATIKVDIELDGDFATITIKADTKELMEKAEDIIDAAAKKHGVAYAIHVDEENKTVTVDLYGEREKLEAFIDDVVAELAKIANVELTLTEDGKTTKKEIKK
B10: GBRAP_52_5933 (protein)
chain: MEEEIRRKVEELVELVRRGDLEGARELAREIVETWSEEELERFIEELARLAREAPLEDLPYILEAADIVAEEIERAGRDEVLADDLLARVAAAAYERLQA
B11: GBRAP_157_3955 (protein)
chain: EVVVVGLLVLPTDTDAEVLAKARAAAAEMAATGRPTVLVVVIRAEDEELAESIEDAVEAVVGYELQRDVPIRVRRLPATATEEEARAALAALAAEARAAA
B12: GBRAP_39_5711 (protein)
chain: EEEEELELLASYYEALAAGEAEKKGISDEEFVEEVKKRIEEKAEEDPENKEVYERILRIMEEGNEEDRLAAAGIAIALEEGMPKEEAEKVLEHIEKERKK
B13: GBRAP_128_3553 (protein)
chain: STEEAVEKARELLEKIKESGPEEARKYAEELVDLLASVDPETRAAIVELILERLPELSVEKLEILADVFRERRPEVDPDVANDLADIEVEALNVALEKEE
B14: GBRAP_128_3548 (protein)
chain: SLEEAKEYAREVVEKIKESDVEEARKITTEFAEKLKTWSLEEVEAALEVVEELSKELDAEKLEAVADVLREQRDKFSPEVQELIAATEVELLNEALEKEE
B15: GBRAP_78_6699 (protein)
chain: ELEKLIEEAIKLVDEAIKLTKKLDPETQAELLDLLVDAASYLEEALEEGGDLELLEEALKKLEEALKLAEKLKKKEAEPLKKKLKEAIKKVKEAIKLVKK
B16: GBRAP_184_5131 (protein)
chain: TLVRRSVEAETAEEAKAQAEAVVAEAAAAGARLLLSVFAKNMSVEEIKELIKHLGALKKAHPQVTVILVVEDELSEEEMDKLIKEADANGVRLVLAISDE
B17: GBRAP_11_2816 (protein)
chain: VSELTKKMIELAKEVAELAEEYLTKAPGDEELLEKLLEKAKELLKLLKEHPDEALRRDAEVLLETIEEAKKDPENREFYVQNALAAARTLLLNLEEEAEE
B18: GBRAP_160_4439 (protein)
chain: SPALAAAEAELDAEAAFVKELADEVSVEDFARALDAEFSSVALNLLSEGRISEEAFDAIMAVVDAAVAELLANPDASLAERRALVDAALARMKAILRADA
B19: GBRAP_125_3106 (protein)
chain: EEEKLLEALKRIAKALGFDEEEAEEAARLARRFSVKNTLYAILLAEGEEELAELVLKLTEEQAKRVLLKVAEWLKEHPNASKEEVVKKLKEVAEEELAAA

target: GABARAP, O95166; assay: median log2 fold change of GCK-ALFA target abundance (FLAG IP / Myc IP barcode read proportion) (log2 ratio); each designed protein is fused to an ALFA-tag nanobody in HEK293 cells to bring the named protein to FLAG-tagged glucokinase (GCK); Myc marks an untargeted standard; higher = target protein stabilised (more abundant); conditions: target protein: 3xFLAG-MCP-GCK-ALFA reporter; HEK293 landing pad (RPLP)
Outline: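 The readout is target abundance, the per-binder median log2 ratio of FLAG to Myc barcode read proportions. It came from HEK293 landing-pad cells carrying a recombined ALFA-nanobody-fused binder library, induced with 2 μg mL^−1 doxycycline and transfected with a plasmid for a FLAG-tagged target and a Myc-tagged standard. After 48 h, lysates were immunoprecipitated with anti-FLAG and anti-Myc, and circular RNA barcodes were reverse transcribed, amplified and sequenced. Each barcode needed a proportion of at least 10^−7 in both replicates and each binder at least 3 barcodes per replicate, a pseudocount of 10^−6 was added, and the replicates were pooled.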

GABARAP, O95166, sequence (O95166 whole entry, the tested form may be a part): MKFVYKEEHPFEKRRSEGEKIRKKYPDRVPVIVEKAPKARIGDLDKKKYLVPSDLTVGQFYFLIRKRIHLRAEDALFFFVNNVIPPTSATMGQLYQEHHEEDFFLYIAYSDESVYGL

Binder	median log2 fold change
B1	-0.118
B2	0.102
B3	-0.121
B4	0.323
B5	0.0147
B6	0.209
B7	0.294
B8	0.189
B9	0.0957
B10	-0.376
B11	0.0727
B12	0.214
B13	0.136
B14	0.292
B15	0.145
B16	-0.207
B17	0.146
B18	-0.261
B19	-0.427
